Sequences and labels used below:
T1: RBFOX1 RRM RbFoxmut (Fox-RRM*) (Homo sapiens, UniProt Q9NWB1 109-208, R118D;E147R;N151S;E152T)
T1 sequence: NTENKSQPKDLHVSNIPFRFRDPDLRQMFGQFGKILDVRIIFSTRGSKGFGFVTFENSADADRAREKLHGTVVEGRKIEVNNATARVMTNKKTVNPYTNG

B1: ACGCUCG (DNA:RNA)
RNA: GGGAGACCGGAAUUCAGAUUGUCCACGCUCGUUAAAUCCCGUCGUAGCCACCA
DNA 1: CAATCTGAATTCCGGTCTCCC
DNA 2: TGGTGGCTACGACGGGATT
B2: AAUAGGU (DNA:RNA)
RNA: B1 RNA with C26A, G27U, C28A, U29G, C30G, G31U
DNA 1: CAATCTGAATTCCGGTCTCCC
DNA 2: TGGTGGCTACGACGGGATT
B3: UGUAUUC (DNA:RNA)
RNA: B1 RNA with A25U, C26G, G27U, C28A, C30U, G31C
DNA 1: CAATCTGAATTCCGGTCTCCC
DNA 2: TGGTGGCTACGACGGGATT
B4: AUUAGGA (DNA:RNA)
RNA: B1 RNA with C26U, G27U, C28A, U29G, C30G, G31A
DNA 1: CAATCTGAATTCCGGTCTCCC
DNA 2: TGGTGGCTACGACGGGATT
B5: CGUUGCC (DNA:RNA)
RNA: B1 RNA with A25C, C26G, G27U, C28U, U29G, G31C
DNA 1: CAATCTGAATTCCGGTCTCCC
DNA 2: TGGTGGCTACGACGGGATT
B6: CCUCGAC (DNA:RNA)
RNA: B1 RNA with A25C, G27U, U29G, C30A, G31C
DNA 1: CAATCTGAATTCCGGTCTCCC
DNA 2: TGGTGGCTACGACGGGATT
B7: UAUGUAU (DNA:RNA)
RNA: B1 RNA with A25U, C26A, G27U, C28G, C30A, G31U
DNA 1: CAATCTGAATTCCGGTCTCCC
DNA 2: TGGTGGCTACGACGGGATT
B8: GGCAGGC (DNA:RNA)
RNA: GGGAGACCGGAAUUCAGAUUGUCCGGCAGGCUUAAAUCCCGUCGUAGCCACCA
DNA 1: CAATCTGAATTCCGGTCTCCC
DNA 2: TGGTGGCTACGACGGGATT
B9: GCUAUCU (DNA:RNA)
RNA: B1 RNA with A25G, G27U, C28A, G31U
DNA 1: CAATCTGAATTCCGGTCTCCC
DNA 2: TGGTGGCTACGACGGGATT
B10: UUUUGCA (DNA:RNA)
RNA: B1 RNA with A25U, C26U, G27U, C28U, U29G, G31A
DNA 1: CAATCTGAATTCCGGTCTCCC
DNA 2: TGGTGGCTACGACGGGATT
B11: AGGGAGC (DNA:RNA)
RNA: B8 RNA with G25A, C27G, A28G, G29A
DNA 1: CAATCTGAATTCCGGTCTCCC
DNA 2: TGGTGGCTACGACGGGATT
B12: GAUACCG (DNA:RNA)
RNA: B1 RNA with A25G, C26A, G27U, C28A, U29C
DNA 1: CAATCTGAATTCCGGTCTCCC
DNA 2: TGGTGGCTACGACGGGATT
B13: UAACUGG (DNA:RNA)
RNA: B1 RNA with A25U, C26A, G27A, C30G
DNA 1: CAATCTGAATTCCGGTCTCCC
DNA 2: TGGTGGCTACGACGGGATT
B14: UCGUGUU (DNA:RNA)
RNA: B1 RNA with A25U, C28U, U29G, C30U, G31U
DNA 1: CAATCTGAATTCCGGTCTCCC
DNA 2: TGGTGGCTACGACGGGATT
B15: AUACGAA (DNA:RNA)
RNA: B1 RNA with C26U, G27A, U29G, C30A, G31A
DNA 1: CAATCTGAATTCCGGTCTCCC
DNA 2: TGGTGGCTACGACGGGATT
B16: UGGCAUA (DNA:RNA)
RNA: B1 RNA with A25U, C26G, U29A, C30U, G31A
DNA 1: CAATCTGAATTCCGGTCTCCC
DNA 2: TGGTGGCTACGACGGGATT
B17: CGAUGGC (DNA:RNA)
RNA: B8 RNA with G25C, C27A, A28U
DNA 1: CAATCTGAATTCCGGTCTCCC
DNA 2: TGGTGGCTACGACGGGATT
B18: AAGACCG (DNA:RNA)
RNA: B1 RNA with C26A, C28A, U29C
DNA 1: CAATCTGAATTCCGGTCTCCC
DNA 2: TGGTGGCTACGACGGGATT
B19: AAAAACC (DNA:RNA)
RNA: B1 RNA with C26A, G27A, C28A, U29A, G31C
DNA 1: CAATCTGAATTCCGGTCTCCC
DNA 2: TGGTGGCTACGACGGGATT
B20: GCAAACG (DNA:RNA)
RNA: B1 RNA with A25G, G27A, C28A, U29A
DNA 1: CAATCTGAATTCCGGTCTCCC
DNA 2: TGGTGGCTACGACGGGATT

Substitutions are numbered along the chain they refer to; changes in the protein carry UniProt numbers. The list shows a part of the results.

20 molecules from article PMC9911399, “Two distinct binding modes provide the RNA-binding protein RbFox with extraordinary sequence specificity” can be followed below.

The target in this experiment is T1, RBFOX1 RRM RbFoxmut (Fox-RRM*). Description: EMSA; HiTS-Eq, 1 nM pool, 10 min; buffer printed only for the single-RNA assays: 10 mM Tris pH 7.5, 150 mM NaCl, 3.4 mM EDTA, 0.001% NP-40, 30 C. The following applies: tags: His6 N-terminal (pET28a); label: 5' 32P. The procedure, abridged:
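Purified RbFox RRM, wild type or mutant, was incubated for 10 min in 50 µL with 1 nM of a 5′-radiolabelled RNA pool carrying 7 randomized nucleotides, whose flanks were annealed to DNA oligonucleotides, over a series of increasing protein concentrations. Unbound RNA was resolved on 8% native PAGE, cut out, reverse-transcribed, barcoded by PCR and sequenced on an Illumina HiSeq 2500. Relative association constants were derived from changes in read counts for each RNA species versus the control reaction and normalised to the cognate motif.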
For orientation: In EMSA bound probe runs differently from free probe, usually more slowly.
On to B1, for which the binding signal was 0.128 KA relative to UGCAUGU.
Then B2, with 0.105 KA relative to UGCAUGU.
As for B3, the figure is 0.207 KA relative to UGCAUGU.
On to B4, for which the binding signal was 0.0686 KA relative to UGCAUGU.
Then B5, with 0.254 KA relative to UGCAUGU; and B6, with 0.0587 KA relative to UGCAUGU.
As for B7, the figure is 0.163 KA relative to UGCAUGU; as for B8, 0.0452 KA relative to UGCAUGU; as for B9, 0.0809 KA relative to UGCAUGU.
With B10, the binding signal was 0.206 KA relative to UGCAUGU.
As for B11, the figure is 0.11 KA relative to UGCAUGU; as for B12, 0.0736 KA relative to UGCAUGU.
On to B13, for which the binding signal is 0.0835 KA relative to UGCAUGU.
As for B14, the binding signal is 0.154 KA relative to UGCAUGU.
Then B15, with 0.123 KA relative to UGCAUGU.
Then B16, with 0.127 KA relative to UGCAUGU.
Then B17, with 0.101 KA relative to UGCAUGU; and B18, with 0.0856 KA relative to UGCAUGU.
As for B19, the binding signal was 0.0505 KA relative to UGCAUGU.
Then B20, with 0.0816 KA relative to UGCAUGU.
